Among all 4,800 compounds or so, about 420 (8.8%) showed an effect of 50% or more. The list shows a part of the results.
Test system: Plasmodium falciparum
Test: Confirmatory screen in NF54 nanoGlo assay, in single point, at 2uM, 72h
Type: functional, Erythrocyte
Settings: timepoint 72 hour

Compound	% Inhibition [%]
C=CCNC(=O)CCC(=O)NCc1ccco1	2
N#Cc1cnc(NC2CC3CCC2C3)cn1 (stereo unspecified)	-8
O=S1(=O)N=C(n2ccnc2)c2ccccc21	-7
CCO[C@@H](C)C(=O)Nc1cnns1	-6
Cc1cccc(Cn2ccn3nc(-c4cccc5ccccc45)cc3c2=O)c1	-16
Cc1cc(C)n(NC(=O)CCn2nc(C(F)(F)F)c(Br)c2C2CC2)c(=O)c1	3
Cc1nc(COC(=O)c2c[nH]nc2-c2c(F)cccc2F)no1	-5
CCS(=O)(=O)Nc1cc2c(C(C)=O)c(C)oc2cc1C	4
Cc1cc(CCC(=O)Nc2nnn[nH]2)ccc1Br	-1
Cc1noc(C2CCN(CC(=O)Nc3ccccc3C(=O)NCC(C)C)CC2)n1	-5
CC(C)(C)NC1=Nc2ccccc2N[C@]12CCCN(C(=O)COc1ccccc1)C2	-11
Cc1cc(NC(=O)c2c(C)sc3ncnc(N4CCCC4)c23)ccc1F	8
COc1ccc(OC)c(Nc2cc(C)nc3nnnn23)c1	-9
CCNC(=O)N1CCCC[C@@]1(C)c1noc(-c2ccc(F)cc2)n1	5
Cc1cc(C)c(NC(=O)CN(C)C(=O)NCc2ccco2)c(C)c1	-8
COC(=O)c1cc(S(=O)(=O)NCCc2csc(C)n2)cc(F)c1F	3
COc1cccc(-c2noc3nc(C)cc(C(=O)NCCCn4cccn4)c23)c1	-9
O=C(Nc1nccs1)C1C2CCC(O2)C1C(F)(F)F (stereo unspecified)	0
O=C(c1ccc2ccccc2c1)N1CCC[C@H]1c1nc2ccccc2s1	1
Oc1cc(OCc2ccccc2F)ccc1-c1[nH]ncc1-c1ccccc1	75
CC1=NN(c2ccccc2)C(=O)[C@H]1N1C(=O)c2ccccc2C1=O	-3
COc1ccc(-c2cc3ncc(C(=O)c4cc(Cl)ccc4O)cn3n2)cc1	72

Compound	% Inhibition [%]
Oc1ccc([C@@H](c2cn(-c3nc(-c4ccc(Cl)cc4)cs3)nc2-c2ccccc2)c2c(-c3ccccc3)nn(-c3nc(-c4ccc(Cl)cc4)cs3)c2O)cc1	6
O=C(O)c1ccc(-c2n[nH]c(=O)c3c2CCCC3)cc1	-7
CC1CCN(Cc2ccc(CNCc3c[nH]nc3-c3ccc(F)cc3)cc2)CC1	40
Cc1cccc(-c2nc(C[N+]3(Cc4nc(-c5cccc(C)c5)oc4C)CCCC3)c(C)o2)c1	41
Cc1c(NC(=O)CCc2ccsc2)nnn1Cc1ccccc1F	-10
O=C(CN1CCCCCC1)Nc1ccc(OCc2ccccc2)cc1	0
Cn1nc(C(F)(F)F)cc1B1OC(C)(C)C(C)(C)O1	4
CC(=O)OCc1c(C)n(C)c(=O)n(C)c1=O	-6
CCCC(CCC)C(=O)Nc1ccc(O)cc1C(=O)O	2
CC(C)c1nc(NC(=O)c2c[nH]nc2-c2c(F)cccc2F)n(C)n1	0
CCOC(=O)NC(c1ccccc1F)C1CCCCC1=O (stereo unspecified)	-14
O=C1OC2(c3ccccc31)C(c1ccccc1)CC(=O)N2Cc1ccccc1 (stereo unspecified)	-9
CCc1ccc(C2=C[C@@H](c3cccc(OC)c3)n3ncc(C(=O)Nc4ccc(C)cc4)c3N2)cc1	70
Cn1ccnc1[C@@H](NC(=O)c1ccnn1C(F)F)C(C)(C)CO	-2
O=C(Cc1ccc(Cl)cn1)Nc1ccnn1[C@H]1CCCc2ccccc21	-10
CCOc1ccc2ccccc2c1C(=O)Nc1cc(C)nn1-c1nc2c(c(=O)[nH]1)CCC2	94
CC(C)[C@H](NC(=O)C(F)(F)F)C(=O)NC1CCN(c2ccccc2Cl)C1=O (stereo partly specified)	-6
COc1ccc(-c2nc(-c3cccc(-c4nnc(N)o4)c3)sc2C)c(OC)c1	-3
CC(C)COc1ccc(/C(N)=N/O)cc1	-9
O=C1c2ccccc2[C@@H](Nc2ccc3c(c2)OCCO3)N1c1ccccn1	-17
Cc1cccc(C(=O)ON2C(=O)CCC2=O)c1	-11
CN1C(=O)c2ccc(S(=O)(=O)NCCn3ncnn3)cc2C1=O	-3

Compound	% Inhibition [%]
CC(C(=O)N1CCCC1c1cccs1)N(C)Cc1ncnn1C (stereo unspecified)	-1
CCCCOc1ccc(-c2ccc(C)cc2)cc1[C@H]1Nc2ccccc2C(=O)N1c1ccccc1	1
c1cc([C@@H]2CN(Cc3noc(C4CC4)n3)CCO2)cs1	-7
CCc1ccc(CN2CCC[C@H](c3ncc[nH]3)C2)nc1	52
O=C(Cn1ccsc1=O)c1cccc(Cl)c1Cl	-8
CC1CC(NS(=O)(=O)CCCC(F)(F)F)CCN1 (stereo unspecified)	-4
C[C@H]1C[C@@H](O)CCN1C(=O)c1cccc2sc(C(F)(F)F)nc12	-3
CCc1c(-c2nc(CCN(C)C(=O)c3ccoc3)no2)[nH]c2ccc(C)cc12	-10
CCN(CC)c1ccc(N2C(=O)c3c(Br)c(Br)c(Br)c(Br)c3C2=O)cc1	5
Cc1ccc(CNC(=O)CCCC(=O)NCc2ccccc2)o1	-12
CCn1nccc1CNc1ccc(F)cc1F	1
CCn1cc(-c2cc(C(F)(F)F)nc(N3CCCC3)n2)cn1	4
CCOc1ccc(C2c3[nH]c4ccccc4c3C[C@H]3C(=O)N(C4CCN(Cc5ccccc5)CC4)CC(=O)N23)cc1OC (stereo partly specified)	80
COc1ccc(-n2nc(C(=O)N3CCOCC3)c(=O)cc2OC)cc1	-1
O=C(Nc1cccnn1)N[C@@H](c1ccccc1)c1ccc2c(c1)CCCO2	-9
N#Cc1c2ccc(O)cc2n2ccccc12	-16
O=C(N[C@@H](CN1CCCC1)c1ccccc1)N1CCC(c2ccn[nH]2)CC1	37
COC1(C)CN(c2cnc(C#N)cn2)C1	-5
COc1ccc2c(c1)CN(C(=O)C1CC3CCC1C3)CC2 (stereo unspecified)	-3
CCc1c(C)nn(S(=O)(=O)c2ccc3ccccc3c2)c1O	-1
CC(C)(C)OC(=O)NS(=O)(=O)NCc1ccccc1	3
[O-]c1c(-c2ccccc2)sc2[n+]1ccc1sc(-c3ccccc3)c([O-])[n+]12	-14

— ChEMBL document CHEMBL4888484, “Replenishing the malaria drug discovery pipeline: Screening and hit evaluation of the MMV Hit Generation Library 1 (HGL1) against asexual blood stage Plasmodium falciparum ,using a nano luciferase reporter read-out” (2022)
